Variants at the background level are over-represented here.
B1: TPR 5TU (parent)
chain: GGAUCUUCUCGAUCUAACAAAAAAGACAAAUCUGCCACAAAGCUUGAGAGCAUCUUCGGAUGCAGAGGCGGCAGCCUUCGGUGGCGCGAUAGCGCCAACGUUCUCAACUAUGACACGCAAAACGCGUGCUCCGUUGAAUGGAGUUUAUCAUG

Variants of: B1
Assay: polymerase ribozyme fitness, log enrichment relative to wild type (log ratio); higher = more active; in vitro selection for triplet polymerase activity
Outline: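 To select mutant libraries of each subunit of a heterodimeric triplet polymerase ribozyme, built by PCR and transcribed, each was annealed with a biotinylated primer, partner subunit and triplets, then incubated frozen at −7 °C. Extended constructs were gel-excised, captured on streptavidin beads and amplified by RT-PCR, in one round carried out in triplicate. Illumina sequencing of input and output libraries kept genotypes with ≥10 input reads and ≥1 read per output. Fitness is the base-2 logarithm of genotype enrichment relative to wild-type enrichment, from inverse-variance-weighted replicate averages.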

Polymerase ribozyme fitness (log ratio), -4.03:
U31G C116G U144C

Polymerase ribozyme fitness (log ratio), -3.52:
C32U U61C

Polymerase ribozyme fitness (log ratio), ≤ -4.2:
U31A C43U A73G C87G A122U
C32A A49C G83U A91G C114U A121G
C32U G42U U55G
U31G A37G A41U U82A
A30G U56A C85G C132U
A30U C43U G59A U77C U109G
A30U C51A A73G
C32G A49C U56A C85A A98G A113U U145A
U31A U44G A49U G80C G84A G92U G117U A120U G126A U135A
U33G C72U G80C C87G C108G G128U U135G
U31G U55G G83U G100A U135G G136A U146A
U31A G81U G83U C95U C105A C129A U148G
U33G C93G C95G U144A
C32G U44G A66G C116U C118G A138G U144C
U33C C69U A91G C125A U127A G136U
U31C A39G G42C G92A G141U
U31A G94U C116U G143A A150U
U31G C32A U139A
C32G C36U U61G C72G C87G C95U A97U C99A G140A
C32U A52G U77G A97C U144A
U31A G58C C75A C103U U109A A110G
U31C C32U A60U A66C G81U C96G G100U
C32G G62C C63A G71C U82A C95G C114U C116A G136C
U31C C35A C93U G100C U127A C129G C149U
C32U A39C A60C A66U G71A U134A
C32U C54U C95U C105G U127A U134A U139G
C32U G86C C87G C95G C149U
U31C C76U G84U A142G G143U U146G
C32G G65A G71C U78A U134C
A30U G50A A52C G80C G94U C118G A121U C123A
U31C U45G G86U A150C
A30G G83A A119C
U31C A39C A49G G50C C76G A89U A98G G124C
A30U C51A A52U C57A A97C C103U A120G U144A
C32A C35U C57G G62A U90C C103G C116U C149U
C32G U44A G65A C85G
U31C U44A G62U C95U
U31A C36G G50U G83C U102C
C32G C116U A119U A142G U146A
A30U C87U C93G U104G
U33G G59C A89U
U33C C96U U139A
U33G G50A C63G G94A C95G C116U
A30U G65U A73U G92U C96U C103U G140U
U33A A91G
U33A G50C A52C C87A C96U C105U U127G U144A
C32U A41C G46A U56A C87A G140A
U31C A41G A49G A107U A115C G126U G133U
A30U C57U G92U A137U A142U
C32A G59C C79G
U31G C32U C57A G59C G100A G141A
C32U C57G G80A
U31A C35A C43A C57U A147G U148A
U31G C54U G59C C103G U130C
C32G C149G
C32U U90C C93G C108G U144C
C32A G59A C69U C75U U111G
A30U C32G U55G G74A A89G C93A G133U A142C
U33G A49C G62C
U31A C32A G84C A107U G133U G141A
A30U A66G A115U G143A
U33C U55C G88U A91U A106G
C32A G88C G141C
U31G U56A G80C C87G C99G
U33A C36G G59A A91G G94U C129G
U31C A47U G88A C108A
U33G C76G G80A A138C
U33G G83U C108A U111G
U31G C35A G42A
U31G U61G C93A C123G G126U U139C U148C
C32U G67C C76U U82A A98U C118U
U31A A41G A47C A49C U77C U78A C87A C103G C108U U134C U151G
C32U G71C C103G A113G A121G U134C

Polymerase ribozyme fitness (log ratio), -1.89:
U31A C131A

Polymerase ribozyme fitness (log ratio), 0.137:
U31A U144A

Polymerase ribozyme fitness (log ratio), -2.55:
C32U A147C

Polymerase ribozyme fitness (log ratio), -3.31:
A30U C95U

Polymerase ribozyme fitness (log ratio), -0.845:
U31A C96U A115C U146C

Polymerase ribozyme fitness (log ratio), -0.528:
U31A A52G G84U

Polymerase ribozyme fitness (log ratio), -3.64:
U33A U61A

Polymerase ribozyme fitness (log ratio), 0.0765:
U31A C125A

Polymerase ribozyme fitness (log ratio), -3.76:
A30U C38U
